Measurements from the supplement of paper PMC8728848.
The other results are listed elsewhere or left out.

Legend:
Assay in all cases: glycan array binding signal (z-score within array); higher = stronger binding
Conditions in all cases: glycan notation: IUPAC condensed, linker removed
[1] = target: Gal(b1-4)GlcNAc(b1-3)Gal(b1-3)GlcNAc
How it was run: (§1)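 Glycan array binding is given as a within-array Z-score, which can be read as non-binding when negative. The arrays, 3228 of them, came from the Consortium for Functional Glycomics database and were retained only where the protein sequence was available. Z-scores were averaged across arrays of the same protein sequence at different concentrations or buffers and across linkers.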

[2] = target: Gal(b1-4)GlcNAc(b1-3)Gal(b1-4)Glc
How it was run: as §1

[3] = target: Gal(b1-4)GlcNAc(b1-3)Gal(b1-4)GlcNAc
How it was run: as §1

[4] = target: Gal(b1-4)GlcNAc(b1-3)Gal(b1-4)GlcNAc(b1-2)Man(a1-3)[Gal(b1-4)GlcNAc(b1-3)Gal(b1-4)GlcNAc(b1-2)Man(a1-6)]Man(b1-4)GlcNAc(b1-4)GlcNAc
How it was run: as §1

[5] = target: Gal(b1-4)GlcNAc(b1-3)Gal(b1-4)GlcNAc(b1-2)Man(a1-3)[Gal(b1-4)GlcNAc(b1-3)Gal(b1-4)GlcNAc(b1-2)Man(a1-6)]Man(b1-4)GlcNAc(b1-4)[Fuc(a1-6)]GlcNAc
How it was run: as §1

[6] = target: Gal(b1-4)GlcNAc(b1-3)Gal(b1-4)GlcNAc(b1-2)[Gal(b1-4)GlcNAc(b1-3)Gal(b1-4)GlcNAc(b1-6)]Man(a1-6)[Gal(b1-4)GlcNAc(b1-3)Gal(b1-4)GlcNAc(b1-2)Man(a1-3)]Man(b1-4)GlcNAc(b1-4)GlcNAc
How it was run: as §1

[7] = target: Gal(b1-4)GlcNAc(b1-3)Gal(b1-4)GlcNAc(b1-2)[Gal(b1-4)GlcNAc(b1-3)Gal(b1-4)GlcNAc(b1-6)]Man(a1-6)[Gal(b1-4)GlcNAc(b1-3)Gal(b1-4)GlcNAc(b1-2)Man(a1-3)]Man(b1-4)GlcNAc(b1-4)[Fuc(a1-6)]GlcNAc
How it was run: as §1

[8] = target: Gal(b1-4)GlcNAc(b1-3)Gal(b1-4)GlcNAc(b1-3)Gal(b1-4)GlcNAc
How it was run: as §1

[9] = target: Gal(b1-4)GlcNAc(b1-3)Gal(b1-4)GlcNAc(b1-3)Gal(b1-4)GlcNAc(b1-2)Man(a1-3)[Gal(b1-4)GlcNAc(b1-3)Gal(b1-4)GlcNAc(b1-3)Gal(b1-4)GlcNAc(b1-2)Man(a1-6)]Man(b1-4)GlcNAc(b1-4)GlcNAc
How it was run: as §1

[10] = target: Gal(b1-4)GlcNAc(b1-3)Gal(b1-4)GlcNAc(b1-3)Gal(b1-4)GlcNAc(b1-2)Man(a1-3)[Gal(b1-4)GlcNAc(b1-3)Gal(b1-4)GlcNAc(b1-3)Gal(b1-4)GlcNAc(b1-2)Man(a1-6)]Man(b1-4)GlcNAc(b1-4)[Fuc(a1-6)]GlcNAc
How it was run: as §1

[11] = target: Gal(b1-4)GlcNAc(b1-3)Gal(b1-4)GlcNAc(b1-3)Gal(b1-4)GlcNAc(b1-2)[Gal(b1-4)GlcNAc(b1-3)Gal(b1-4)GlcNAc(b1-3)Gal(b1-4)GlcNAc(b1-6)]Man(a1-6)[Gal(b1-4)GlcNAc(b1-3)Gal(b1-4)GlcNAc(b1-3)Gal(b1-4)GlcNAc(b1-2)Man(a1-3)]Man(b1-4)GlcNAc(b1-4)[Fuc(a1-6)]GlcNAc
How it was run: as §1

[12] = target: Gal(b1-4)GlcNAc(b1-3)Gal(b1-4)GlcNAc(b1-3)Gal(b1-4)GlcNAc(b1-3)Gal(b1-4)GlcNAc(b1-2)Man(a1-3)[Gal(b1-4)GlcNAc(b1-3)Gal(b1-4)GlcNAc(b1-3)Gal(b1-4)GlcNAc(b1-3)Gal(b1-4)GlcNAc(b1-2)Man(a1-6)]Man(b1-4)GlcNAc(b1-4)GlcNAc
How it was run: as §1

[13] = target: Gal(b1-4)GlcNAc(b1-3)Gal(b1-4)GlcNAc(b1-3)Gal(b1-4)GlcNAc(b1-3)Gal(b1-4)GlcNAc(b1-2)Man(a1-3)[Gal(b1-4)GlcNAc(b1-3)Gal(b1-4)GlcNAc(b1-3)Gal(b1-4)GlcNAc(b1-3)Gal(b1-4)GlcNAc(b1-2)Man(a1-6)]Man(b1-4)GlcNAc(b1-4)[Fuc(a1-6)]GlcNAc
How it was run: as §1

[14] = target: Gal(b1-4)GlcNAc(b1-3)Gal(b1-4)GlcNAc(b1-3)Gal(b1-4)GlcNAc(b1-3)Gal(b1-4)GlcNAc(b1-2)[Gal(b1-4)GlcNAc(b1-3)Gal(b1-4)GlcNAc(b1-3)Gal(b1-4)GlcNAc(b1-3)Gal(b1-4)GlcNAc(b1-6)]Man(a1-6)[Gal(b1-4)GlcNAc(b1-3)Gal(b1-4)GlcNAc(b1-3)Gal(b1-4)GlcNAc(b1-3)Gal(b1-4)GlcNAc(b1-2)Man(a1-3)]Man(b1-4)GlcNAc(b1-4)[Fuc(a1-6)]GlcNAc
How it was run: as §1

[15] = target: Gal(b1-4)GlcNAc(b1-3)Gal(b1-4)GlcNAc(b1-3)Gal(b1-4)GlcNAc(b1-3)Gal(b1-4)GlcNAc(b1-3)Gal(b1-4)GlcNAc(b1-2)Man(a1-3)[Gal(b1-4)GlcNAc(b1-3)Gal(b1-4)GlcNAc(b1-3)Gal(b1-4)GlcNAc(b1-3)Gal(b1-4)GlcNAc(b1-3)Gal(b1-4)GlcNAc(b1-2)Man(a1-6)]Man(b1-4)GlcNAc(b1-4)GlcNAc
How it was run: as §1

[16] = target: Gal(b1-4)GlcNAc(b1-3)Gal(b1-4)GlcNAc(b1-3)Gal(b1-4)GlcNAc(b1-3)Gal(b1-4)GlcNAc(b1-3)Gal(b1-4)GlcNAc(b1-2)Man(a1-3)[Gal(b1-4)GlcNAc(b1-3)Gal(b1-4)GlcNAc(b1-3)Gal(b1-4)GlcNAc(b1-3)Gal(b1-4)GlcNAc(b1-3)Gal(b1-4)GlcNAc(b1-2)Man(a1-6)]Man(b1-4)GlcNAc(b1-4)[Fuc(a1-6)]GlcNAc
How it was run: as §1

[17] = target: Gal(b1-4)GlcNAc(b1-3)Gal(b1-4)GlcNAc(b1-3)Gal(b1-4)GlcNAc(b1-3)Gal(b1-4)GlcNAc(b1-3)Gal(b1-4)GlcNAc(b1-2)[Gal(b1-4)GlcNAc(b1-3)Gal(b1-4)GlcNAc(b1-3)Gal(b1-4)GlcNAc(b1-3)Gal(b1-4)GlcNAc(b1-3)Gal(b1-4)GlcNAc(b1-6)]Man(a1-6)[Gal(b1-4)GlcNAc(b1-3)Gal(b1-4)GlcNAc(b1-3)Gal(b1-4)GlcNAc(b1-3)Gal(b1-4)GlcNAc(b1-3)Gal(b1-4)GlcNAc(b1-2)Man(a1-3)]Man(b1-4)GlcNAc(b1-4)[Fuc(a1-6)]GlcNAc
How it was run: as §1

[18] = target: Gal(b1-4)GlcNAc(b1-3)Gal(b1-4)GlcNAc(b1-3)Gal(b1-4)GlcNAc(b1-3)Gal(b1-4)GlcNAc(b1-3)Gal(b1-4)GlcNAc(b1-3)Gal(b1-4)GlcNAc(b1-2)Man(a1-3)[Gal(b1-4)GlcNAc(b1-3)Gal(b1-4)GlcNAc(b1-3)Gal(b1-4)GlcNAc(b1-3)Gal(b1-4)GlcNAc(b1-3)Gal(b1-4)GlcNAc(b1-3)Gal(b1-4)GlcNAc(b1-2)Man(a1-6)]Man(b1-4)GlcNAc(b1-4)GlcNAc
How it was run: as §1

[19] = target: Gal(b1-4)GlcNAc(b1-3)Gal(b1-4)GlcNAc(b1-3)GalNAc
How it was run: as §1

[20] = target: Gal(b1-4)GlcNAc(b1-3)Gal(b1-4)GlcNAc(b1-3)[Gal(b1-4)GlcNAc(b1-3)Gal(b1-4)GlcNAc(b1-6)]GalNAc
How it was run: as §1

[21] = target: Gal(b1-4)GlcNAc(b1-3)Gal(b1-4)GlcNAc(b1-6)[Gal(b1-3)]GalNAc
How it was run: as §1

[22] = target: Gal(b1-4)GlcNAc(b1-3)Gal(b1-4)[Fuc(a1-3)]GlcNAc(b1-3)Gal(b1-4)[Fuc(a1-3)]GlcNAc
How it was run: as §1

[23] = target: Gal(b1-4)GlcNAc(b1-3)GalNAc
How it was run: as §1

[24] = target: Gal(b1-4)GlcNAc(b1-3)[Fuc(a1-3)GlcNAc(b1-6)]Gal(b1-4)Glc
How it was run: as §1

[25] = target: Gal(b1-4)GlcNAc(b1-3)[Gal(b1-4)GlcNAc(b1-6)]Gal(b1-4)GlcNAc
How it was run: as §1

[26] = target: Gal(b1-4)GlcNAc(b1-3)[Gal(b1-4)GlcNAc(b1-6)]GalNAc
How it was run: as §1

[27] = target: Gal(b1-4)GlcNAc(b1-3)[GlcNAc(b1-6)]Gal(b1-4)GlcNAc
How it was run: as §1

[28] = target: Gal(b1-4)GlcNAc(b1-6)Gal(b1-4)GlcNAc
How it was run: as §1

[29] = target: Gal(b1-4)GlcNAc(b1-6)Gal(b1-4)GlcNAc(b1-6)GalNAc
How it was run: as §1

[30] = target: Gal(b1-4)GlcNAc(b1-6)GalNAc
How it was run: as §1

[31] = target: Gal(b1-4)GlcNAc(b1-6)[Gal(b1-3)]GalNAc
How it was run: as §1

[32] = target: Gal(b1-4)GlcNAc(b1-6)[Gal(b1-4)GlcNAc(b1-3)]GalNAc
How it was run: as §1

Gal(b1-4)GlcNAc6P = target: Gal(b1-4)GlcNAc6P
How it was run: as §1

Gal(b1-6)Gal = target: Gal(b1-6)Gal
How it was run: as §1

Gal3S(b1-3)GalNAc = target: Gal3S(b1-3)GalNAc
How it was run: as §1

Gal3S(b1-3)GlcNAc = target: Gal3S(b1-3)GlcNAc
How it was run: as §1

[33] = target: Gal3S(b1-3)[Fuc(a1-4)]GlcNAc
How it was run: as §1

Gal3S(b1-4)Glc = target: Gal3S(b1-4)Glc
How it was run: as §1

Gal3S(b1-4)Glc6S = target: Gal3S(b1-4)Glc6S
How it was run: as §1

Gal3S(b1-4)GlcNAc = target: Gal3S(b1-4)GlcNAc
How it was run: as §1

Gal3S(b1-4)GlcNAc6S = target: Gal3S(b1-4)GlcNAc6S
How it was run: as §1

[34] = target: Gal3S(b1-4)[Fuc(a1-3)]Glc6S
How it was run: as §1

[35] = target: Gal3S(b1-4)[Fuc(a1-3)]GlcNAc
How it was run: as §1

[36] = target: Gal3S(b1-4)[Fuc(a1-3)]GlcNAc6S
How it was run: as §1

Gal3S4S(b1-4)GlcNAc = target: Gal3S4S(b1-4)GlcNAc
How it was run: as §1

B1: SJA (Sophora japonica) (protein)
chain: FLGLFNSGGYSSSYQIVAVEFDTYINEWDPKTRHIGIDINSINSTKTVTWGWENGEVAIVLISYKAATETLTVSLTYPSSQTSYILSAAVDLKSILPEWVRIGF
glycan array binding signal (z-score) [1]: -0.192
glycan array binding signal (z-score) [2]: -0.14
glycan array binding signal (z-score) [3]: -0.148
glycan array binding signal (z-score) [4]: 1.95
glycan array binding signal (z-score) [5]: 0.728
glycan array binding signal (z-score) [6]: -0.225
glycan array binding signal (z-score) [7]: 1.17
glycan array binding signal (z-score) [8]: -0.123
glycan array binding signal (z-score) [9]: 2.39
glycan array binding signal (z-score) [10]: 1.03
glycan array binding signal (z-score) [11]: 2.16
glycan array binding signal (z-score) [12]: 1.27
glycan array binding signal (z-score) [13]: 1.91
glycan array binding signal (z-score) [14]: 1.36
glycan array binding signal (z-score) [15]: 1.84
glycan array binding signal (z-score) [16]: 1.49
glycan array binding signal (z-score) [17]: 2.24
glycan array binding signal (z-score) [18]: 0.358
glycan array binding signal (z-score) [19]: 0.349
glycan array binding signal (z-score) [20]: 1.24
glycan array binding signal (z-score) [21]: 0.875
glycan array binding signal (z-score) [22]: -0.071
glycan array binding signal (z-score) [23]: -0.09
glycan array binding signal (z-score) [24]: 0.035
glycan array binding signal (z-score) [25]: 0.112
glycan array binding signal (z-score) [26]: 0.035
glycan array binding signal (z-score) [27]: -0.02
glycan array binding signal (z-score) [28]: -0.357
glycan array binding signal (z-score) [29]: -0.055
glycan array binding signal (z-score) [30]: -0.118
glycan array binding signal (z-score) [31]: -0.108
glycan array binding signal (z-score) [32]: -0.159
glycan array binding signal (z-score) (Gal(b1-4)GlcNAc6P): -0.274
glycan array binding signal (z-score) (Gal(b1-6)Gal): -0.22
glycan array binding signal (z-score) (Gal3S(b1-3)GalNAc): -0.16
glycan array binding signal (z-score) (Gal3S(b1-3)GlcNAc): -0.263
glycan array binding signal (z-score) [33]: -0.235
glycan array binding signal (z-score) (Gal3S(b1-4)Glc): -0.193
glycan array binding signal (z-score) (Gal3S(b1-4)Glc6S): -0.048
glycan array binding signal (z-score) (Gal3S(b1-4)GlcNAc): -0.189
glycan array binding signal (z-score) (Gal3S(b1-4)GlcNAc6S): -0.161
glycan array binding signal (z-score) [34]: 0.247
glycan array binding signal (z-score) [35]: -0.24
glycan array binding signal (z-score) [36]: -0.166
glycan array binding signal (z-score) (Gal3S4S(b1-4)GlcNAc): -0.23
